Reference: paper PMC12136788
Some of the results follow.

B1: chr1:162785649:162785750:+|3pUTR|ENSG00000162733|unk|total|mutant (ssRNA)
RNA: GGGAGUUCUACAGUCCGACGAUCUGAAUGUUGUUUUUUUGAAUGAACAUAAGACCGAAACAAAAACUUCUCAUCCAGUUAACCCGAGUGAAUGCCGGGAGAAUUGUUUUGCUUGUAACAUGGAGAGUUUAUUUUCAAGUGAGGCAACAGAGGAUUGAGCAUCA
B2: chr1:117368288:117368465:+|CDS|ENSG00000198162|unk|total|mutant (ssRNA)
RNA: GGGAGUUCUACAGUCCGACGAUCUUUUGGGGCAUUCUUUUUCCUUCCAGACUCUUCAAAACACAAACGCUUUGAUUUGGGUUCCGAAGAUGUGUUAAUUCCACAUGCCGAUGCCGGUAAAGGGGCUAAAAACCCCGGAGUCUUCAACAGAGGAUUGAGCAUCA
B3: chr1:32680599:32680700:+|3pUTR|ENSG00000162521|msi1|total|mutant (ssRNA)
RNA: GGGAGUUCUACAGUCCGACGAUCAAGUGCUUAAAAUGGAAUAAAUUGCUUUUCUACAUAACCCCAUGCUGAUGGGUUUUAUUCCGUAUAAAACAUCCAUCAAACACCAGUCUCUGGCUUCCCGAAGAGUCCUUCAGAUGACAGCAACAGAGGAUUGAGCAUCA
B4: chr4:48851844:48851957:+|CDS|ENSG00000109180|unk|total|mutant (ssRNA)
RNA: GGGAGUUCUACAGUCCGACGAUCAUAUGACUCAAGUGUGAGUGGUCAAUCAUCUUUUGUGACAUCCCCAGCAGCAGACAACACCGAAAUGCUUCCUCAUUAUGAGCCAAUUCCAUUCAGUUCUUCUAUGAAUGAAUCUGCUCCCAACAGAGGAUUGAGCAUCA
B5: chr19:57858129:57858983:-|three_prime_utr|ENSG00000204514|control|control|control (ssRNA)
RNA: GGGAGUUCUACAGUCCGACGAUCCCUGUGACACCCUGAGCUUACGUUUCUUUACAAACGAUGCUUCUCUGACACUCUUUCUGUAGAAUUUCUCUCCAAUAUGCUGCUUCUGGUGCUGAUGAAGGUAUGCAGUGUCAUCCAAGUCAACAGAGGAUUGAGCAUCA
B6: ENSG00000107863:be:win_1551|CDS|ENSG00000107863|bound_else_gene|NA|bound_elsewhere_windowed (ssRNA)
RNA: GGGAGUUCUACAGUCCGACGAUCUUCCAAUGGAGAGAAAAAACAGACUUACAAGUGGAGUGGGUUUACUGAACAGGAUGAUAGACGAGGUAUUUGUGAAAGACCUAGGCAGCAAGAAAUUCAUAAAUCUUUUCGAGGUUCCAACAACAGAGGAUUGAGCAUCA
B7: chr8:73046310:73046411:+|3pUTR|ENSG00000147601|msi1|FALSE|unique (ssRNA)
RNA: GGGAGUUCUACAGUCCGACGAUCUUGUAUUCUUUAAGAACCUUAUUUUGAUAAAAUGUAAAUUUGUUGAACCCUGCCACAUUUAGUAUCCCCACCCCCAAAUCCUGUUCCAAUGAAAAAAUUAAAACCUGAUACGAAAAAAAACAACAGAGGAUUGAGCAUCA
B8: chr10:62094764:62094865:+|3pUTR|ENSG00000150347|msi1|total|mutant (ssRNA)
RNA: GGGAGUUCUACAGUCCGACGAUCGAUGAACUCCCCAACCCACUGUGCCCCUCCCGCAACACUACCAGCCGACUUCCGAACCACCGUUAACUAAGUCUUUUACCUCUGAGAUACUUAAUUCUGGGAAAAUUGGUGACAAUUUUCCAACAGAGGAUUGAGCAUCA
B9: chr1:180199467:180199568:+|3pUTR|ENSG00000116260|msi1|total|mutant (ssRNA)
RNA: GGGAGUUCUACAGUCCGACGAUCCACAGGAACAAUUUCCUCAAGGAGACAGUGGCAUGGAGCUUUGAAAGACGAGCCGGUGUCCGCAAGGAAAUAAGGAGGAACGGGGGUUACGGGCAGAGGAGAAAGCACAUGCCAAGUCAGCAACAGAGGAUUGAGCAUCA
B10: ENSG00000070961:be:win_251|CDS|ENSG00000070961|bound_else_gene|NA|bound_elsewhere_windowed (ssRNA)
RNA: GGGAGUUCUACAGUCCGACGAUCUGUUUGGAAAGAAUUUUAUACCUCCUAAAAAGCCAAAAACCUUUCUUCAAUUAGUAUGGGAAGCAUUACAAGAUGUCACUUUAAUUAUAUUAGAAAUUGCAGCCAUAGUAUCAUUGGGCCCAACAGAGGAUUGAGCAUCA
B11: chr3:170392585:170392686:+|3pUTR|ENSG00000136603|msi1|FALSE|bound_elsewhere (ssRNA)
RNA: GGGAGUUCUACAGUCCGACGAUCUACAUUUUCCAAAUGAAUGAAAAUGUAUGUUUCUUUGUACUUUUUUAAAAAAAUCAGCUUAGUAACAAUACUAUAUGGUUUCAACUAGUAGGUAAUCUGCUUAUAUUUCUAAUGCAAACUCAACAGAGGAUUGAGCAUCA
B12: chr7:20412070:20412171:+|3pUTR|ENSG00000105855|msi1|total|mutant (ssRNA)
RNA: GGGAGUUCUACAGUCCGACGAUCCUUUUUUUUUAUAAUAAACUUCCAAGAUUUGCUGUCUUCCAGCACUUGAGUUAAAGUACCCGAUACUGCAUUUUGAUGAAGACUAACCCCAUCUCAUAUUCUACCCUAAAGAGAACUGAACAACAGAGGAUUGAGCAUCA
B13: ENSG00000124766:be:win_201|CDS|ENSG00000124766|bound_else_gene|NA|bound_elsewhere_windowed (ssRNA)
RNA: GGGAGUUCUACAGUCCGACGAUCGGUGUGGUCGCAGAUCGAGCGGCGCAAGAUCAUGGAGCAGUCGCCCGACAUGCACAACGCCGAGAUCUCCAAGCGGCUGGGCAAACGCUGGAAGCUGCUCAAAGACAGCGACAAGAUCCCCAACAGAGGAUUGAGCAUCA
B14: chr17:18209558:18209659:+|3pUTR|ENSG00000091542|msi1|total|mutant (ssRNA)
RNA: GGGAGUUCUACAGUCCGACGAUCGGCCGCUUCUAUCCACUCAGAUCCUGGAAGGCAGCAAGGUUUUGUGGAUCCCGAUUCAUCCGGAAUGUCUUCUUGUCAGCCAGGCCAGGACCCGGGCUUGCCAAGAGCAGAGGCCCUCCCCAACAGAGGAUUGAGCAUCA
B15: chr7:30424526:30425710:-|three_prime_utr|ENSG00000106100|control|control|control (ssRNA)
RNA: GGGAGUUCUACAGUCCGACGAUCAAACUCCCUAAGUACCCGCUACAAUUCUGCAGAAAAAGAAUGUGUCUUGCGAGCUGUUGUAGUUACAGUAAAUACACUGUGAAGAGACUUUAUUGCCUAUUAUAAUUAUUUUUAUCUGAACAACAGAGGAUUGAGCAUCA
B16: chr4:183512276:183512377:+|3pUTR|ENSG00000168556|unk|FALSE|unique (ssRNA)
RNA: GGGAGUUCUACAGUCCGACGAUCCUGCUUGUUUUGGGAAAAAAAAAUGCUUUUUUUCUCUUCUAGCUCUCCUGUGUGACUUUUAGGCAUGUCAUUUCACCUUGUCUGGGUGUCAGGUCAUUCACCUGUAAAAUGAGUUGGCUUCAACAGAGGAUUGAGCAUCA
B17: chr14:106116634:106116941:-|CDS|ENSG00000211941|control|control|control (ssRNA)
RNA: GGGAGUUCUACAGUCCGACGAUCUGGAUCCGCCAGGCUCCAGGGAAGGGGCUGGAGUGGGUUUCAUACAUUAGUAGUAGUAGUAGUUACACAAACUACGCAGACUCUGUGAAGGGCCGAUUCACCAUCUCCAGAGACAACGCCCAACAGAGGAUUGAGCAUCA
B18: ENSG00000107863:be:win_1051|CDS|ENSG00000107863|bound_else_gene|NA|bound_elsewhere_windowed (ssRNA)
RNA: GGGAGUUCUACAGUCCGACGAUCUACAGUGGACAUUCUGAUGGAAUCUCAAGCAGCAGAUCUCAAGCUGUGGAGGCUCCCUCUGUAUCUGUUAAUCACUAUUCGCCAAAUUCCCAUCAGCACAUAGACUGGAAAAACUAUAAACAACAGAGGAUUGAGCAUCA
B19: chr8:23842440:23842541:-|3pUTR|ENSG00000159167|msi1|total|mutant (ssRNA)
RNA: GGGAGUUCUACAGUCCGACGAUCCCAAUGCGACAAGCCGUUCAUGAGUAUUCCCCGCAAAUUUCUCUCUUUCUUCAGUUCAGCCGAUUUCCUUUUUUCUUUUCUUUUUUUUUUUUUUUUUUUUUGGCUGUGACCUCUUCAAACCAACAGAGGAUUGAGCAUCA
B20: chr1:225494445:225494546:-|3pUTR|ENSG00000154380|msi1|total|mutant (ssRNA)
RNA: GGGAGUUCUACAGUCCGACGAUCUUGGGUGUUCCCUCUUCUUAUUUUCUCUCUGCCCACCUUGACACAGUAACUUCCUCUUACCGUCAAGAUGAUGAUUAAGUGUUUAAUUUUUAUUCCAUUUUGUUCUGCAACACGUUCAGGCAACAGAGGAUUGAGCAUCA
B21: chr2:32414998:32415099:+|CDS|ENSG00000115760|unk|total|mutant (ssRNA)
RNA: GGGAGUUCUACAGUCCGACGAUCCCAUGUUUAUCCGCUGGAGGUUUAUUAACAUAUAAAUCUCCUGCUACCUCACCCAUCCGCCGUAAUUCUCACAGGUCACUGGAUGGUUUAAGCAGAACUCAGGGUGAAAGUAUAUCAGAACAACAGAGGAUUGAGCAUCA
B22: chr1:67426168:67426278:-|CDS|ENSG00000142864|unk|total|mutant (ssRNA)
RNA: GGGAGUUCUACAGUCCGACGAUCAUAAGACGAGUUGGAAGAAGACCUGAUCAACAACUUCAGGGUGAAGGGAAAAUAAUUGACCGAAGACCAGAAAGGCGACCACCUCGUGAACGAAGAUUCGAAAAGCCACUUGAAGAAAAGCAACAGAGGAUUGAGCAUCA

target: T1, UNK ZnF1-6 (called full-length) (human, UniProt Q9C0B0 30-357); assay: nsRBNS (natural sequence RNA bind-n-seq); RBNS binding buffer (assumed for nsRBNS): 25 mM Tris pH 7.5, 150 mM KCl, 3 mM MgCl2, 0.01% Triton X-100, 500 ug/ml BSA, 20 U/ml SUPERase-In, 4 C; UNK is unkempt and MSI1 is Musashi-1; names of the RNAs are library labels; protein concentration not given here; high values mean tight binding
T1 sequence: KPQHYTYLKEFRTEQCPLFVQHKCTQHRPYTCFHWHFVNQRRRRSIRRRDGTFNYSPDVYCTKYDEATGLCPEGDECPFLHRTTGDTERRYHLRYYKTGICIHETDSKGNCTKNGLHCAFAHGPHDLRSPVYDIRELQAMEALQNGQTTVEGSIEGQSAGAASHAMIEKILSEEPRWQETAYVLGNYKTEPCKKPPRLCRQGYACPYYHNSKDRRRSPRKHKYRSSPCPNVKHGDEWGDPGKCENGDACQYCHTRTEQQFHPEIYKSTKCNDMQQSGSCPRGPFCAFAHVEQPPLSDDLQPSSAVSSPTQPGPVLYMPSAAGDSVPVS

Row | Binder | binding signal [enrichment R]
1 | B1 | 0.302
2 | B2 | 0.464
3 | B3 | 0.412
4 | B4 | 0.399
5 | B5 | 0.469
6 | B6 | 0.757
7 | B7 | 2.26
8 | B8 | 0.98
9 | B9 | 0.769
10 | B10 | 5.79
11 | B11 | 0.916
12 | B12 | 0.911
13 | B13 | 0.523
14 | B14 | 0.851
15 | B15 | 3.7
16 | B16 | 0.423
17 | B17 | 1.12
18 | B18 | 0.834
19 | B19 | 3.66
20 | B20 | 0.642
21 | B21 | 0.463
22 | B22 | 0.442
